Consider eight molecules from patent US20220056104A1 (Janssen / Centocor, published 2022).

For assay [1], the target named is T1, Recombinant DR3-Fc (R&D Systems, cat. #943-D3) (UniProt Q93038 25-199, limits assumed).
T1 construct: dimeric MW~92 kDa; also called DR3 receptor; Fc-DR3; not shown: Fc part of the bought fusion
T1 sequence (looked up): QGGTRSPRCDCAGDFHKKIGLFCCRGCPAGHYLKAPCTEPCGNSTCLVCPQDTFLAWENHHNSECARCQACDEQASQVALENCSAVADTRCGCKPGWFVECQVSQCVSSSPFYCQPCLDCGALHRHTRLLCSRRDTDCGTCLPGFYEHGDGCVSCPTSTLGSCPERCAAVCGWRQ
Put plainly: ELISA, TL1A construct immobilized, DR3 titrated. (ELISA stands for enzyme-linked immunosorbent assay.)

The target of assay [2] is T1, Recombinant DR3-Fc (R&D Systems, cat. …). Put plainly: ELISA, DR3-Fc immobilized. The protocol:
(§1) All ELISA-based measurements were collected in triplicate, and error values report the standard error between measurements. Recombinant DR3-Fc (R&D Systems, cat. #943-D3), dimeric MW˜92 kDa, was non-specifically immobilized onto plates (Nunc maxisorp, cat. #436110) in 100 μL DR3-Fc, diluted to 10 μg/mL onto a 96-well White Maxisorp plate (Nunc, cat #436110) (O/N, 4° C.). Plates were block for 1 hour at room temperature with 250 μl/well of casein buffer and blocking buffer was removed. 50 μL of TL1A variants were diluted in StartingBlock PBS (Thermo Fisher Scientific), at 25 μg/mL, diluting 3× over each well, according to the plate map description for 20160623) per well on a 96-well White Maxisorp plate (Nunc, cat #: 436110) (overnight at 4° C.).
(§2) Plates were washed three times with TBST. 100 μl/well polyclonal rabbit anti-human TL1A-biotin antibody (diluted 1:1000 in Starting Block PBS) was added and plates were incubated for 1 hour at room temperature with shaking at 150 rpm. TL1A-biotin antibody was removed and 100 μl/well streptavidin-HRP conjugate (diluted 1:10,000 in Starting Block PBS) was added to plates. Plates were incubated for 1 hour at room temperature with shaking at 150 rpm. Plates were washed three times with TBST. 100 μl/well POD Chemiluminescence substrate (Roche, cat #: 11582950001) was added immediately prior to reading plate luminescence using a Molecular Devices M5 plate reader with a delay setting of 100 ms.

Assay [3] concerns the target T2, DcR3 (UniProt O95407 30-300, limits assumed).
T2 construct: the construct is not described; also called decoy receptor DcR3; TNFRSF6B
T2 sequence (looked up): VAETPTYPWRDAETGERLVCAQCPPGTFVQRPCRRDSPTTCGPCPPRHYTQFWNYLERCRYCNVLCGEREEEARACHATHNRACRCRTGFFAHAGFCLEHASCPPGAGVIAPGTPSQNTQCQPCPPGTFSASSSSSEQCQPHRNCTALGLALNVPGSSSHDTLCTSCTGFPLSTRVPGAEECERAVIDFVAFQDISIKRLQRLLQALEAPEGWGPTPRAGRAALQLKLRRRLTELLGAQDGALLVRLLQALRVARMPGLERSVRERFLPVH
Put plainly: ELISA, DcR3.

Assay [4] deals with T1, Recombinant DR3-Fc (R&D Systems, cat. …). Put plainly: ELISA, DR3-Fc immobilized. The protocol: as §1, §2
These combination mutants were tested for binding to DR3 and DcR3 (FIGS. 5E and 5F, respectively).
This is another data set of the same source.

B1: TL1W3 (GS-huIgG1 Fc - 2(G4S)-hTL1A 72-251) (Fc fusion)
chain: [left out - human IgG1 Fc and a few adjoining residues]GGGGSLKGQEFAPSHQQVYAPLRADGDKPRAHLTVVRQTPTQHFKNQFPALHWEHELGLAFTKNRMNYTNKFLLIPESGDYFIYSQVTFRGMTSECSEIRQAGRPNKPDSITVVITKVTDSYPEPTQLLMGTKSVCEVGSNWFQPIYLGAMFSLQEGDKLMVNVSDISLVDYTKEDKTFFGAFLL
notes: Target oligomer hexamer: three Fc and two TL1A trimers; also called Fc-TL1A; Fc-TL1A (TL1W3)
For orientation: EC50 means the concentration needed to bring the measured effect to its halfway point. As for B1, the results for the EC50 in assay [1] and in assay [2] were 2.6 nM and 12.4 nM, respectively.

B2: TL1W61 (Fc-TL1A + His-TL1A) (Fc fusion)
chain 1: [left out - human IgG1 Fc and a few adjoining residues]GGGGSLKGQEFAPSHQQVYAPLRADGDKPRAHLTVVRQTPTQHFKNQFPALHWEHELGLAFTKNRMNYTNKFLLIPESGDYFIYSQVTFRGMTSECSEIRQAGRPNKPDSITVVITKVTDSYPEPTQLLMGTKSVCEVGSNWFQPIYLGAMFSLQEGDKLMVNVSDISLVDYTKEDKTFFGAFLL
chain 2: HHHHHHENLYFQGLKGQEFAPSHQQVYAPLRADGDKPRAHLTVVRQTPTQHFKNQFPALHWEHELGLAFTKNRMNYTNKFLLIPESGDYFIYSQVTFRGMTSECSEIRQAGRPNKPDSITVVITKVTDSYPEPTQLLMGTKSVCEVGSNWFQPIYLGAMFSLQEGDKLMVNVSDISLVDYTKEDKTFFGAFLL
notes: that entry prints the Fc-TL1A chain followed by the His-TL1A chain; target oligomer printed as Dimer; also called Fc-His-TL1A; Fc-His-TL1A (TL1W61)
As to B2, the EC50 in assay [1] turned out to be 2.2 nM; in assay [2] it was 10.2 nM.

B3: TL1W15 (His-TEV-HSA(C34S)-G4S-TL1A-3(G3S)-TL1A-3(G3S)-TL1A) (ligand)
chain: HHHHHHENLYFQG[left out - about 600 residues]GGGGSVYAPLRADGDKPRAHLTVVRQTPTQHFKNQFPALHWEHELGLAFTKNRMNYTNKFLLIPESGDYFIYSQVTFRGMTSECSEIRQAGRPNKPDSITVVITKVTDSYPEPTQLLMGTKSVCEVGSNWFQPIYLGAMFSLQEGDKLMVNVSDISLVDYTKEDKTFFGAFLLGGGSGGGSGGGSVYAPLRADGDKPRAHLTVVRQTPTQHFKNQFPALHWEHELGLAFTKNRMNYTNKFLLIPESGDYFIYSQVTFRGMTSECSEIRQAGRPNKPDSITVVITKVTDSYPEPTQLLMGTKSVCEVGSNWFQPIYLGAMFSLQEGDKLMVNVSDISLVDYTKEDKTFFGAFLLGGGSGGGSGGGSVYAPLRADGDKPRAHLTVVRQTPTQHFKNQFPALHWEHELGLAFTKNRMNYTNKFLLIPESGDYFIYSQVTFRGMTSECSEIRQAGRPNKPDSITVVITKVTDSYPEPTQLLMGTKSVCEVGSNWFQPIYLGAMFSLQEGDKLMVNVSDISLVDYTKEDKTFFGAFLL
notes: HSA fusion of the single-chain TL1A trimer; also called HSA-scTL1A; HSA-scTL1A (TL1W15)
With B3, the EC50 in assay [1] turned out to be 3.8 nM; in assay [2], 29.2 nM.

B4: TL1W9 (His-TEV-G-HSA (C34S)-2(G4S)-TL1A) (ligand)
chain: HHHHHHENLYFQG[left out - about 600 residues]GGGGSGGGGSLKGQEFAPSHQQVYAPLRADGDKPRAHLTVVRQTPTQHFKNQFPALHWEHELGLAFTKNRMNYTNKFLLIPESGDYFIYSQVTFRGMTSECSEIRQAGRPNKPDSITVVITKVTDSYPEPTQLLMGTKSVCEVGSNWFQPIYLGAMFSLQEGDKLMVNVSDISLVDYTKEDKTFFGAFLL
notes: HSA fusion, non-covalent trimer; also called HSA-TL1A; HSA-TL1A (TL1W9)
For B4, the half-maximal effective concentration (EC50) in assay [2] is 168 nM.

B5: TL1W328 (Fc-scTL1A K111A L123K M158Y Q167A S187L N207F) (Fc fusion)
chain: [left out - human IgG1 Fc and a few adjoining residues]GGGGSVYAPLRADGDKPRAHLTVVRQTPTQHFANQFPALHWEHEKGLAFTKNRMNYTNKFLLIPESGDYFIYSQVTFRGYTSECSEIRAAGRPNKPDSITVVITKVTDLYPEPTQLLMGTKSVCEVGSFWFQPIYLGAMFSLQEGDKLMVNVSDISLVDYTKEDKTFFGAFLLGGGSGGGSGGGSVYAPLRADGDKPRAHLTVVRQTPTQHFANQFPALHWEHEKGLAFTKNRMNYTNKFLLIPESGDYFIYSQVTFRGYTSECSEIRAAGRPNKPDSITVVITKVTDLYPEPTQLLMGTKSVCEVGSFWFQPIYLGAMFSLQEGDKLMVNVSDISLVDYTKEDKTFFGAFLLGGGSGGGSGGGSVYAPLRADGDKPRAHLTVVRQTPTQHFANQFPALHWEHEKGLAFTKNRMNYTNKFLLIPESGDYFIYSQVTFRGYTSECSEIRAAGRPNKPDSITVVITKVTDLYPEPTQLLMGTKSVCEVGSFWFQPIYLGAMFSLQEGDKLMVNVSDISLVDYTKEDKTFFGAFLL
notes: Fc-scTL1A format; mutations in all three TL1A copies of the entry; also called TL1W328.001
As to B5, the binding result in assay [3] is “no binding”. In assay [4], the 50% effective concentration (EC50) worked out at 8.8 nM and the “Rel EC50” value was 0.8 ratio.

B6: TL1W331 (Fc-scTL1A K111A L123K Q167A S187L E190F N207F) (Fc fusion)
chain: [left out - human IgG1 Fc and a few adjoining residues]GGGGSVYAPLRADGDKPRAHLTVVRQTPTQHFANQFPALHWEHEKGLAFTKNRMNYTNKFLLIPESGDYFIYSQVTFRGMTSECSEIRAAGRPNKPDSITVVITKVTDLYPFPTQLLMGTKSVCEVGSFWFQPIYLGAMFSLQEGDKLMVNVSDISLVDYTKEDKTFFGAFLLGGGSGGGSGGGSVYAPLRADGDKPRAHLTVVRQTPTQHFANQFPALHWEHEKGLAFTKNRMNYTNKFLLIPESGDYFIYSQVTFRGMTSECSEIRAAGRPNKPDSITVVITKVTDLYPFPTQLLMGTKSVCEVGSFWFQPIYLGAMFSLQEGDKLMVNVSDISLVDYTKEDKTFFGAFLLGGGSGGGSGGGSVYAPLRADGDKPRAHLTVVRQTPTQHFANQFPALHWEHEKGLAFTKNRMNYTNKFLLIPESGDYFIYSQVTFRGMTSECSEIRAAGRPNKPDSITVVITKVTDLYPFPTQLLMGTKSVCEVGSFWFQPIYLGAMFSLQEGDKLMVNVSDISLVDYTKEDKTFFGAFLL
notes: Fc-scTL1A format; also called TL1W331.001; Fc-scTL1A-AKALFF
As for B6, in assay [3], the binding result is listed as “no binding”. In assay [4], the EC50 turned out to be 9 nM and the “Rel EC50” value was found to be 0.9 ratio.

B7: TL1W329 (Fc-scTL1A K111A L123K M158Y Q167A E190F N207F) (Fc fusion)
chain: [left out - human IgG1 Fc and a few adjoining residues]GGGGSVYAPLRADGDKPRAHLTVVRQTPTQHFANQFPALHWEHEKGLAFTKNRMNYTNKFLLIPESGDYFIYSQVTFRGYTSECSEIRAAGRPNKPDSITVVITKVTDSYPFPTQLLMGTKSVCEVGSFWFQPIYLGAMFSLQEGDKLMVNVSDISLVDYTKEDKTFFGAFLLGGGSGGGSGGGSVYAPLRADGDKPRAHLTVVRQTPTQHFANQFPALHWEHEKGLAFTKNRMNYTNKFLLIPESGDYFIYSQVTFRGYTSECSEIRAAGRPNKPDSITVVITKVTDSYPFPTQLLMGTKSVCEVGSFWFQPIYLGAMFSLQEGDKLMVNVSDISLVDYTKEDKTFFGAFLLGGGSGGGSGGGSVYAPLRADGDKPRAHLTVVRQTPTQHFANQFPALHWEHEKGLAFTKNRMNYTNKFLLIPESGDYFIYSQVTFRGYTSECSEIRAAGRPNKPDSITVVITKVTDSYPFPTQLLMGTKSVCEVGSFWFQPIYLGAMFSLQEGDKLMVNVSDISLVDYTKEDKTFFGAFLL
notes: Fc-scTL1A format; also called TL1W329.001
Take B7: the binding result in assay [3] is “no binding”. Also, in assay [4], the EC50 was found to be 8.7 nM and the “Rel EC50” value amounted to 0.9 ratio.

B8: TL1W327 (Fc-scTL1A K111A L123K M158Y Q167A S187L E190F) (Fc fusion)
chain: [left out - human IgG1 Fc and a few adjoining residues]GGGGSVYAPLRADGDKPRAHLTVVRQTPTQHFANQFPALHWEHEKGLAFTKNRMNYTNKFLLIPESGDYFIYSQVTFRGYTSECSEIRAAGRPNKPDSITVVITKVTDLYPFPTQLLMGTKSVCEVGSNWFQPIYLGAMFSLQEGDKLMVNVSDISLVDYTKEDKTFFGAFLLGGGSGGGSGGGSVYAPLRADGDKPRAHLTVVRQTPTQHFANQFPALHWEHEKGLAFTKNRMNYTNKFLLIPESGDYFIYSQVTFRGYTSECSEIRAAGRPNKPDSITVVITKVTDLYPFPTQLLMGTKSVCEVGSNWFQPIYLGAMFSLQEGDKLMVNVSDISLVDYTKEDKTFFGAFLLGGGSGGGSGGGSVYAPLRADGDKPRAHLTVVRQTPTQHFANQFPALHWEHEKGLAFTKNRMNYTNKFLLIPESGDYFIYSQVTFRGYTSECSEIRAAGRPNKPDSITVVITKVTDLYPFPTQLLMGTKSVCEVGSNWFQPIYLGAMFSLQEGDKLMVNVSDISLVDYTKEDKTFFGAFLL
notes: also called TL1W327.001
As for B8, in assay [3], the binding result is listed as “no binding”. For the same molecule, in assay [4], the EC50 turned out to be 37.5 nM and the “Rel EC50” value stood at 3.9 ratio.
